{"source": "patent US8592383B2", "about": "“Cycloalkyl-fused tetrahydroquinolines as CRTH2 receptor modulators” (Merck Sharp & Dohme Corp., priority 2011, dated 2013)"}
{"molecular_target": "T1, hCRTH2 (Homo sapiens, UniProt Q9Y5Y4)", "T1 sequence (Q9Y5Y4 1-395)": "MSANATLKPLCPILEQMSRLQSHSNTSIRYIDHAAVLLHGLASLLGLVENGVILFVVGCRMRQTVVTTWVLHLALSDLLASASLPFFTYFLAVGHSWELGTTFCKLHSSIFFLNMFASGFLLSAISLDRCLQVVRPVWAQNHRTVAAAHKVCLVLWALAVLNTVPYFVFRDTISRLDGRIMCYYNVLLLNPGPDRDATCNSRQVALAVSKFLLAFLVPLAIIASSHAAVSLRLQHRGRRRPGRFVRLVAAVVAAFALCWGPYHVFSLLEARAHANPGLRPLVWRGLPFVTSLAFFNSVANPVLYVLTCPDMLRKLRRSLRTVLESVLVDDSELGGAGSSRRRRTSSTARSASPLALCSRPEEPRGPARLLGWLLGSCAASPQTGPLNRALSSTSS", "test": "biochemical", "settings": "Ki (nM), Table A; Radioligand Binding Assay A, [3H]PGD2, HEK-hCRTH2 membranes", "units": {"Ki": "nM"}}
{"smiles": "O=C(O)CCC(=O)N(C1CC1)C1c2ccccc2N(C(=O)c2ccc3c(c2)OCO3)C2CCCC21", "note": "(racemic) [17BK, 4-(((cis,cis)-4-(benzo[d][1,3]dioxole-5-carbonyl)-2,3,3a,4,9,9a-hexahydro-1H-cyclopenta[b]quinolin-9-yl)(cyclopropyl)amino)-4-oxobutanoic acid]", "Ki": "5.1 to 20"}
{"smiles": "O=C(O)CCC(=O)N(C1CC1)C1c2cc(F)c(Cl)cc2N(C(=O)OCc2ccc(F)cc2F)C2CCCC21", "note": "(single isomer, unassigned) [22F, 4-[(2,4-difluorophenyl)methyl] cis, cis-[(3-carboxy-1-oxopropyl)cyclopropylamino]-6-chloro-7-fluoro-1,2,3,3a,9,9a-hexahydro-4H-cyclopenta[b]quinoline-4-carboxylate]", "Ki": "5.1 to 20"}
{"smiles": "[2H]C1(N(C(=O)CCC(=O)O)C2CC2)c2ccccc2N(C(=O)OCc2ccccc2)C2CCC21", "note": "(single isomer, unassigned) [compound 111, 3-(phenylmethyl) deuterated-cis, cis-[(3-carboxy-1-oxopropyl)cyclopropylamino]-2,2a,8,8a-tetrahydrocyclobuta[b] quinoline-3(1H)-carboxylate-(8D)]", "Ki": "5.1 to 20"}
{"smiles": "O=C(O)CCC(=O)N(CC1CCC1)C1c2ccccc2N(C(=O)c2ccc(OC(F)(F)F)cc2)C2CCCC12", "note": "(racemic) [17AD, 4-[(cyclobutylmethyl)[cis,cis-2,3,3a,4,9,9a-hexahydro-4-[4-(trifluoromethoxy)benzoyl]-1H-cyclopenta[b]quinolin-9-yl]amino]-4-oxobutanoic acid]", "Ki": "5.1 to 20"}
{"smiles": "O=C(O)CCC(=O)N(C1CC1)[C@H]1c2cc(F)ccc2N(C(=O)c2nc3ccccc3s2)[C@H]2CCC[C@H]21", "note": "(single isomer, unassigned) [compound 152]", "Ki": "5.1 to 20"}
{"smiles": "CC12CCC1N(C(=O)OCc1ccccc1)c1ccccc1C2N(CCCC(=O)O)C1CC1", "note": "(single isomer, unassigned) [compound 48, 4-((cis, cis-3-(benzyloxycarbonyl)-8a-methyl-1,2,2a,3,8,8a-hexahydrocyclobuta[b]quinolin-8-yl)(cyclopropyl)amino) butanoic acid]", "Ki": "5.1 to 20"}
{"smiles": "O=C(O)CCC(=O)N(C1CC1)[C@H]1c2cc(F)ccc2N(C(=O)c2ccc(OC(F)(F)F)c(O)c2)[C@H]2CCC[C@H]21", "note": "[compound 173]", "Ki": "5.1 to 20"}
{"smiles": "O=C(O)CCCN(C1COC1)C1c2ccc(F)cc2N(C(=O)OCc2ccccc2)C2CCC21", "note": "(single isomer, unassigned) [43C, 4-((cis, cis-3-(benzyloxycarbonyl)-5-fluoro-1,2,2a,3,8,8a-hexahydrocyclobuta[b]quinolin-8-yl)(oxetan-3-yl)amino) butanoic acid]", "Ki": "20.1 to 200"}
{"smiles": "O=C(O)CCC(=O)N(C1CC1)C1c2ccccc2N(C(=O)c2ccc3ccccc3n2)C2CCCC21", "note": "(single isomer, unassigned) [17BQ, 4-[cyclopropyl[cis,cis-2,3,3a,4,9,9a-hexahydro-4-(2-quinolinylcarbonyl)-1H-cyclopenta[b]quinolin-9-yl]amino]-4-oxobutanoic acid]", "Ki": "5.1 to 20"}
{"smiles": "O=C(O)CCC(=O)N(C1CC1)C1c2ccccc2N(C(=O)c2ccccc2Br)C2CCCC21", "note": "(racemic) [17AJ, 4-[[cis,cis-4-(2-bromobenzoyl)-2,3,3a,4,9,9a-hexahydro-1H-cyclopenta[b]quinolin-9-yl]cyclopropylamino]-4-oxobutanoic acid]", "Ki": "20.1 to 200"}
{"smiles": "O=C(O)CCC(=O)N(C1CC1)C1c2ccccc2N(C(=O)OCc2ccc(F)c(F)c2)C2CCCC21", "note": "(single isomer, unassigned) [22M, 4-[(3,4-difluorophenyl)methyl] cis, cis-[(3-earboxy-1-oxopropyl)cyclopropylamino]-1,2,3,3a,9,9a-hexahydro-4H-cyclopenta[b]quinoline-4-carboxylate]", "Ki": "5.1 to 20"}
{"smiles": "O=C(O)CCCN(Cc1ncco1)C1c2ccccc2N(C(=O)c2ccc(OC(F)(F)F)cc2)C2CCCC12", "note": "(racemic) [compound 127, 4-[[cis,cis-2,3,3a,4,9,9a-hexahydro-4-[4-(trifluoromethoxy)benzoyl]-1H-cyclopenta[b]quinolin-9-yl](2-oxazolylmethyl)amino] butanoic acid]", "Ki": "20.1 to 200"}
{"smiles": "CC(O)c1ccc2c(c1)C(N(C(=O)CCC(=O)O)C1CC1)C1CCC1N2C(=O)OCc1ccccc1", "note": "(single isomer, unassigned) [compound 155, 4-((cis, cis-3-((benzyloxy)carbonyl)-6-(1-hydroxyethyl)-1,2,2a,3,8,8a-hexahydrocyclobuta[b]quinolin-8-yl)(cyclopropyl)amino)-4-oxobutanoic acid]", "Ki": "201 to 7500"}
{"smiles": "CC12CCC1N(C(=O)OCc1ccccc1)c1ccccc1C2N(CCCC(=O)O)C1CC1", "note": "(single isomer, unassigned) [48C, 4-((cis, trans-3-(benzyloxycarbonyl)-8a-methyl-1,2,2a,3,8,8a-hexahydrocyclobuta[b]quinolin-8-yl)(cyclopropyl)amino) butanoic acid]", "Ki": "201 to 7500"}
{"smiles": "O=C(O)CCC(=O)N(C1CC1)C1c2ccccc2N(C(=O)c2ccc(-c3ccccc3)cc2)C2CCCC21", "note": "(single isomer, unassigned) [18L, 4-[[cis, cis-4-([1,1′-biphenyl]-4-ylcarbonyl)-2,3,3a,4,9,9a-hexahydro-1H-cyclopenta[b]quinolin-9-yl]cyclopropylamino]-4-oxobutanoic acid]", "Ki": "1 to 5"}
{"smiles": "O=C(O)C1CN(C(=O)N(C2CC2)[C@H]2c3cc(F)ccc3N(C(=O)OCc3ccccc3)[C@H]3CCC[C@H]32)C1", "note": "[compound 34, 4-(phenylmethyl)(3aS,9R,9aR)-[[(3-carboxy-1-azetidinyl)carbonyl]cyclopropylamino]-7-fluoro-1,2,3,3a,9,9a-hexahydro-4H-cyclopenta[b]quinoline-4-carboxylate]", "Ki": "201 to 7500"}
{"smiles": "O=C(O)COC(=O)N(C1CC1)C1c2ccccc2N(C(=O)OCc2ccccc2)C2CCCC21", "note": "(single isomer, unassigned) [32D]", "Ki": "20.1 to 200"}
{"smiles": "O=C(O)CCC(=O)N(C1CC1)C1c2ccccc2N(C(=O)c2ccc(F)cc2)C2CCCC21", "note": "(racemic) [17AX, 4-(cyclopropyl(cis,cis-4-(4-fluorobenzoyl)-2,3,3a,4,9,9a-hexahydro-1H-cyclopenta[b]quinolin-9-yl)amino)-4-oxobutanoic acid]", "Ki": "5.1 to 20"}
{"smiles": "CCN(C(=O)CCC(=O)O)C1c2ccccc2N(C(=O)c2cccs2)C2CCC12", "note": "(single isomer, unassigned) [compound 81, 4-(ethyl(cis, cis-3-(thiophene-2-carbonyl)-1,2,2a,3,8,8a-hexahydrocyclobuta[b]quinolin-8-yl)amino)-4-oxobutanoic acid]", "Ki": "1 to 5"}
{"smiles": "O=C(O)CCC(=O)N(C1CC1)C1c2ccccc2N(C(=O)c2cccc(OC(F)(F)F)c2)C2CCCC21", "note": "(racemic) [17Ai, 4-[cyclopropyl[cis,cis-2,3,3a,4,9,9a-hexahydro-4-[3-(trifluoromethoxy)benzoyl]-1H-cyclopenta[b]quinolin-9-yl]amino]-4-oxobutanoic acid]", "Ki": "5.1 to 20"}
{"smiles": "O=C(O)COC(=O)N(C1CC1)[C@H]1c2cc(F)ccc2N(C(=O)c2ccc(OC(F)(F)F)cc2)[C@H]2CCC[C@H]21", "note": "(single isomer, unassigned) [32T]", "Ki": "1 to 5"}
{"smiles": "O=C(O)CCC(=O)N(C1CCC1)[C@@H]1c2ccccc2N(C(=O)c2cccc(OC(F)(F)F)c2)[C@@H]2CCC[C@@H]21", "note": "(single isomer, unassigned) [17DA, 4-[cyclobutyl[cis,cis-2,3,3a,4,9,9a-hexahydro-4-[3-(trifluoromethoxy)benzoyl]-1H-cyclopenta[b]quinolin-9-yl]amino]-4-oxobutanoic acid]", "Ki": "20.1 to 200"}
{"smiles": "CCN(C(=O)CCC(=O)O)C1c2ccccc2N(C(=O)OCc2ccc(C(F)(F)F)cc2)C2CCC12", "note": "(single isomer, unassigned) [compound 91, 4-(ethyl(cis, cis-3-((4-(trifluoromethyl)benzyloxy)carbonyl)-1,2,2a,3,8,8a-hexahydrocyclobuta[b]quinolin-8-yl)amino)-4-oxobutanoic acid]", "Ki": "20.1 to 200"}
{"smiles": "O=C(O)COC(=O)N(C1CC1)C1c2ccccc2N(C(=O)OCc2cccs2)C2CCCC21", "note": "(single isomer, unassigned) [22E, 4-(2-thienylmethyl) cis, cis-[[(carboxymethoxy)carbonyl]cyclopropylamino]-1,2,3,3a,9,9a-hexahydro-4H-cyclopenta[b]quinoline-4-carboxylate]", "Ki": "5.1 to 20"}
{"smiles": "CCN(C(=O)CCC(=O)NS(=O)(=O)C1CC1)C1c2ccccc2N(C(=O)c2ccc(SC(F)(F)F)cc2)C2CCC12", "note": "(single isomer, unassigned) [11B, N1-(cyclopropylsulfonyl)-N4-ethyl-N4-(cis,cis-3-(4-(trifluoromethylthio)benzoyl)-1,2,2a,3,8,8a-hexahydrocyclobuta[b]quinolin-8-yl)succinamide]", "Ki": "20.1 to 200"}
{"smiles": "O=C(O)[C@@H]1CCN1C(=O)N(C1CC1)C1c2ccccc2N(C(=O)OCc2ccccc2)C2CCCC21", "note": "(single isomer, unassigned) [compound 59]", "Ki": "201 to 7500"}
{"smiles": "O=C(O)CCCN(C1CC1)C1c2ccccc2N(C(=O)c2ccc(F)cc2)C2CCCC21", "note": "(single isomer, unassigned) [compound 130, 4-[cyclopropyl[cis,cis-4-(4-fluorobenzoyl)-2,3,3a,4,9,9a-hexahydro-1H-cyclopenta[b]quinolin-9-yl]amino]butanoic acid]", "Ki": "5.1 to 20"}
{"smiles": "O=C(O)CCC(=O)N(C1CC1)C1c2ccc(F)cc2N(C(=O)OCc2ccccc2)C2CCC21", "note": "(single isomer, unassigned) [compound 9, 3-(phenylmethyl) cis,cis-8-[(3-carboxy-1-oxopropyl)cyclopropylamino]-5-fluoro-2,2a,8,8a-tetrahydrocyclobuta[b]quinoline-3(1H)-carboxylate]", "Ki": "5.1 to 20"}
